According to PubChem BioAssay AID504706 (National Center for Advancing Translational Sciences (NCATS), 2011):
Screen size: about 320,000 compounds; about 200 (0.062%) were called active. Inconclusive means that the source gave no clear call. Such entries were picked first, then a sample of the others. Calls follow the shape of the dose curve; as a rule, active = well fitted activation curve with a large enough effect; inconclusive = small, poorly fitted or top-dose-only effect; inactive = no such curve, though single readings can be large or run the other way. Potencies of inconclusive entries are left out as doubtful fits.

test: qHTS assay for re-activators of p53 using a Luc reporter; settings: H1299 p53-A138V BP100-luciferase reporter, luminescence, 24 h; series mostly up to 92.2 µM; activity change, positive = activation: at the top concentration; also: nearly all actives have a fitted effect of over 45% in size; as to activity change, positive = activation: % of control where 0% means no effect
Outline: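 H1299 (p53-null), stable ts p53-A138V + BP100-Luc; 1000 cells/well, Opti-MEM/10% FBS; cpd 4 pt, 1:5; 24 h, 37 deg C, 5% CO2; detection reagent 10 min RT; luminescence.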
Potency is read from the fitted curve at half-maximal effect; tags tell the direction and shape of the fitted curve.

SMILES | Potency | activity change, positive = activation
Nc1cc(=O)[nH]c(SCc2ccccc2Cl)n1 | inconclusive [activator, single point] | –
CCSc1nnc(NC(=O)c2cc(C)oc2C)s1 | inconclusive [activator, partial curve, poor fit] | –
COc1ccc(-n2nnnc2SCC(N)=O)cc1 | – | inactive: -5.75%
Nc1ccc2nc(SCc3cccc(F)c3)sc2c1 | inconclusive [activator, partial curve, poor fit] | –
Cc1nc(NC(=O)/C=C/c2ccco2)sc1C | inconclusive [activator, partial curve, poor fit] | –
CC1=CC2=NC(=O)/C(=C\c3ccc(-c4ccc(Cl)cc4)o3)C(=N)N2O1 | inconclusive [activator, single point] | –
Cn1c(SCc2nc3ccccc3s2)nnc1-c1cccs1 | inconclusive [activator, full curve, poor fit] | –
CCOCC(=O)Nc1nc2ccccc2s1 | inconclusive [activator, partial curve, poor fit] | –
C[C@H](NC(=O)[C@@H]1CSC2c3ccccc3C(=O)N21)C(=O)NCCc1ccccc1 (some centres undefined) | inconclusive [activator, partial curve, poor fit] | –
COc1ccc(-c2nn(-c3ccccc3)cc2C(=O)Nc2nccs2)cc1 | – | inactive: 4.42%
CC(=O)c1sc(N/N=C\c2ccc(N(C)C)cc2)nc1C | inconclusive [activator, full curve, poor fit] | –
COC(=O)C1=C(C)NC(=O)NC1c1ccc2c(c1)OCO2 (centres undefined) | inconclusive [activator, single point] | –
CC1S/C(=N/N=C2CCCCC2)NC1=O (centres undefined) | – | inactive: 16.9%
COc1ccc(C(=O)/C=C/Nc2cccc(O)c2)cc1 | inconclusive [activator, partial curve, poor fit] | –
COc1ccc(/C=C/C(=O)NC(=S)Nc2ccccc2C(=O)NC2CCCCC2)cc1 | inconclusive [activator, single point] | –
Cc1ccc(-c2cc(C(=O)N3CCCCCC3)no2)cc1 | inconclusive [activator, full curve, poor fit] | –
O=C(N=c1nc2ccccn2s1)c1ccccc1 | inconclusive [activator, full curve, poor fit] | –
O=C(/C=C/c1ccccc1[N+](=O)[O-])OCC(=O)N1CCCC1 | inconclusive [activator, single point] | –
O=C(N/N=C/c1ccco1)c1ccc(N2CCCC2=O)cc1 | inconclusive [activator, single point] | –
COc1ccc(C(=O)NCc2nnc(SCC(=O)Nc3nc4ccc(C)cc4s3)o2)cc1OC | inconclusive [activator, single point] | –
Cc1occc1C(=O)NN=C1C2CC3CC(C2)CC1C3 | active: 12.6 µM | –
CSc1n[nH]c(NCc2ccc(C)cc2)n1 | inconclusive [activator, full curve, poor fit] | –
CC(=O)N(C(C)=O)c1cccc2c(N(C(C)=O)C(C)=O)cccc12 | – | inactive: 0.304%
Cc1ccc(NC(=O)c2ccc(F)cc2)nc1 | – | inactive: 1.27%
CCC1CCCCN1C(=O)COc1ccccc1NC(C)=O (centres undefined) | – | inactive: -0.793%

SMILES | Potency | activity change, positive = activation
O=S(=O)(NNc1ncc(C(F)(F)F)cc1Cl)c1ccc(F)cc1F | – | inactive: 1.74%
Cc1cc(Nc2ccccc2)n(C(=O)c2ccc(Cl)cc2)n1 | inconclusive [activator, partial curve, poor fit] | –
O=C(O)c1ccc(COc2ccc3ccccc3c2/C=C2/NC(=O)N(Cc3ccc(F)cc3)C2=O)cc1 | – | inactive: 7.25%
CC(C)OCCCNc1ccc(N2C(=O)CCCC2=O)cc1[N+](=O)[O-] | – | inactive: 1.03%
CC(C)(C)SCCNC(=O)/C=C/c1ccc(F)cc1 | inconclusive [activator, full curve] | –
CCC(=O)NC(O)C(=O)c1ccc(C)cc1 (centres undefined) | inconclusive [activator, full curve, poor fit] | –
CCCCC1(C)NC(=O)N(CC(=O)Nc2ccc(Cl)cc2C)C1=O (centres undefined) | – | inactive: -10.7%
O=C(O)c1ccc(Oc2ccc(S(=O)(=O)c3ccc(C(=O)O)c(C(=O)O)c3)cc2)cc1 | inconclusive [activator, single point] | –
CN(C(=O)c1ccc(S(=O)(=O)N2CCCC2)cc1)C1CCCCC1 | – | inactive: 2.1%
N#CCOC(=O)c1cc(S(=O)(=O)N2CCCCC2)ccc1N1CCOCC1 | – | inactive: -3.26%
O=c1[nH]c(/C=C/c2ccc(Br)cc2)nc2ccccc12 | inconclusive [activator, partial curve, poor fit] | –
COc1cccc(NC(=O)c2ccc3c(c2)CCCC3)c1 | inconclusive [activator, partial curve, poor fit] | –
COCC(=O)N1CCC(Oc2ccc(C(=O)N3CCSCC3)cc2)CC1 | inconclusive [activator, single point] | –
O=C(OCC(=O)c1ccc[nH]1)c1ccc(Br)cc1 | – | inactive: 0.415%
CCC(=O)c1ccc(OCC(=O)NC2CCCC2)cc1 | – | inactive: -0.0167%
CC(C)Oc1ccc(CSc2ncn[nH]2)cc1 | – | inactive: 4.59%
Oc1cccc(/C=N/N2CCN(c3ccccn3)CC2)c1 | – | inactive: 10.6%
CC(C)OC(=O)c1c2c(n3ccccc13)C(=O)c1ccccc1C2=O | – | inactive: 4.19%
O=C(CCCN1C(=O)c2ccccc2C1=O)N1CCc2ccccc2C1 | inconclusive [activator, single point] | –
COc1ccc(CNc2nc(-c3ccccc3)nc3ccccc23)cc1OC | – | inactive: 2.91%
CCOC(=O)c1sc(NC(=O)C2CC2)nc1C | inconclusive [activator, single point] | –
CCOc1ccc2nc(N3C(=O)/C(=C/c4ccc(Cl)cc4)NC3=S)sc2c1 | inconclusive [activator, single point] | –
O=C(CCSc1ccccc1)Nc1nccs1 | – | inactive: 6.76%
Cc1nn(-c2ccccc2)c(Cl)c1/C=N/NC(=O)c1nn(C)cc1[N+](=O)[O-] | inconclusive [activator, partial curve, poor fit] | –
